Results on 55 compounds are retold here after PMC4336329 (PLoS ONE, 2015).

The structures appear in SMILES notation. About 2,200 (0.71%) of roughly 310,000 compounds showed an effect of 50% or more. Effects have a minus sign here. The list shows a part of the results.

The test deals with human ether-à-go-go-related gene (hERG) potassium channel (human, UniProt Q12809). The test is described as follows: primary screen, population patch clamp on CHO cells stably expressing hERG.
Sequence of human ether-à-go-go-related gene (hERG) potassium channel (Q12809 whole entry, looked up): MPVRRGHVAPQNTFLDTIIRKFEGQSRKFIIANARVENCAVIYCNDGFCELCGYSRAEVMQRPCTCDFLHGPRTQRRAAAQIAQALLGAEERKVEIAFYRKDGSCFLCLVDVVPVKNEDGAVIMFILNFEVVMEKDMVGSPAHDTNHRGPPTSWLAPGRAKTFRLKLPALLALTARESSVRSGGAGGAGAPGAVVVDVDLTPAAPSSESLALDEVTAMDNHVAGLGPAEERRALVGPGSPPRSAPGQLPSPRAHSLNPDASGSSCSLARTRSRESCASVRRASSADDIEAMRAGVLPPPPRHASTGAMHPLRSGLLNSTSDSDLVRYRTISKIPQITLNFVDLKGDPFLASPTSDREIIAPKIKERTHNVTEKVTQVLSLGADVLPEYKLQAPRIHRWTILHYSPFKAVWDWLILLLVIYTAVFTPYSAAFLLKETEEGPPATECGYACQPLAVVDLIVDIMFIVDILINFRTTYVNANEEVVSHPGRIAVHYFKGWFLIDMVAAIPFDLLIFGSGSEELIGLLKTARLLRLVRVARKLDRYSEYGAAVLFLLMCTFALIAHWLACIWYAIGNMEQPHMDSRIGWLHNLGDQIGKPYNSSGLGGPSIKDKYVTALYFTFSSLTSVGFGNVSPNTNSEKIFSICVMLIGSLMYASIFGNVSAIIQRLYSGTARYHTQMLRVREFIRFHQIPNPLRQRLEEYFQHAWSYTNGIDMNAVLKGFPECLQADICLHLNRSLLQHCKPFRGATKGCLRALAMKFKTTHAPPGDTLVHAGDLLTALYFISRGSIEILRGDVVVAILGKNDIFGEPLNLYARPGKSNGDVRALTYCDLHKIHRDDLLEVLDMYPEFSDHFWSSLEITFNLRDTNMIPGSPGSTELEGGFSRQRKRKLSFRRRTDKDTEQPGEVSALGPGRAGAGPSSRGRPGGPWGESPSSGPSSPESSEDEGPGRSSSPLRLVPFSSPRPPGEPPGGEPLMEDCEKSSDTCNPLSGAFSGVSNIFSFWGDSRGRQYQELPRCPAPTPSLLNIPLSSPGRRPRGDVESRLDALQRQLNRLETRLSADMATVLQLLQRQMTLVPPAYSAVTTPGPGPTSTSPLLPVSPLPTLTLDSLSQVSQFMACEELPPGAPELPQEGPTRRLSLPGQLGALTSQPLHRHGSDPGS
On to `COc1cc2ncnc(NCc3cccs3)c2cc1OC`, for which the “hERG current change (%, negative = inhibition) at 1uM” value was -9.04%.
As to `COC(=O)c1cc(NC(=O)C2CC(=O)NC(=NCc3ccc(OC)cc3)S2)cc(C(=O)OC)c1` (stereo not shown), the “hERG current change (%, negative = inhibition) at 1uM” value is 15.6%.
Next, `Cc1ccc(-n2nnc3c(=O)oc4ccccc4c32)cc1`: 10.4%; `CCOc1ccc(Cc2nnc(SCC(N)=O)n2C)cc1`: 4.75%; `Cc1cccc(C)c1NC(=O)NNC(=O)c1cc(C(C)(C)C)nn1Cc1ccccc1`: 8.31%.
For the compound `CCOC(=O)N1CCN(c2c(-c3ccc(C)cc3)c(=O)c2=O)CC1`, the “hERG current change (%, negative = inhibition) at 1uM” value turned out to be 1.88%.
Consider `Nc1ccc(-c2nnnn2-c2ccc(N)cc2)cc1`, for which the “hERG current change (%, negative = inhibition) at 1uM” value was found to be 14.8%.
On to `CCCC1(C(=O)OC)NC(c2ccc(OC)c(OC)c2)C2C(=O)N(c3ccc4c(c3)OCO4)C(=O)C21` (stereo not shown), for which the “hERG current change (%, negative = inhibition) at 1uM” value is reported as 21%.
Regarding `O=C(Nc1cccc(C(=O)Nc2cccc(C(F)(F)F)c2)c1)c1ccc(=O)[nH]c1`, the “hERG current change (%, negative = inhibition) at 1uM” value came out at 12.5%.
For the compound `COc1ccc(N(C)C(=O)C2CCN(S(=O)(=O)c3cccc4nsnc34)CC2)cc1`, the “hERG current change (%, negative = inhibition) at 1uM” value was found to be 12.4%.
For `O=C(CN1CCOCC1)Nc1ccc(Br)cc1C(=O)c1ccccc1`, the “hERG current change (%, negative = inhibition) at 1uM” value is listed as -3.67%.
With `COC(=O)Nc1nc2c(s1)CCCC2`, the “hERG current change (%, negative = inhibition) at 1uM” value is recorded as 10.4%.
As for `CCOc1ccc(NC(=O)CN(C)C(=O)c2cc(C)on2)cc1OCC`, the figure is 18%; as for `O=c1[nH]c(CN2CCN(C/C=C/c3ccccc3)CC2)nc2ccccc12`, -52.6%.
In the case of `COc1ccc(-c2nc3c4ccccc4ccn3c2CN2CCCCC2)cc1OC.Cl`, the “hERG current change (%, negative = inhibition) at 1uM” value was found to be 13.9%.
For the compound `CCN1CCN(c2ccc([N+](=O)[O-])cc2C(=O)c2ccc(Cl)cc2)CC1`, the “hERG current change (%, negative = inhibition) at 1uM” value is reported as -58.3%.
Turning to `CCN1CCN(C(=O)N[C@@H](C(=O)N[C@@H]2C(=O)N3C(C(=O)O)=C(CSc4nnnn4C)CS[C@H]23)c2ccc(O)cc2)C(=O)C1=O.O`, the “hERG current change (%, negative = inhibition) at 1uM” value was 14%.
Next, `CC(C)Oc1cccc(C(=O)C2CCCN(C(=O)CCn3cnnn3)C2)c1` (stereo not shown): -3.55%; `CCOc1ccc(N)c(SSc2cc(OCC)ccc2N)c1`: 15.6%.
Take `COc1cc(N=Nc2c(C)n(C)n(-c3ccccc3)c2=O)ccc1N`: the “hERG current change (%, negative = inhibition) at 1uM” value amounted to 14.6%.
In the case of `CN1CCN(C2CCCCCC2)CC1`, the “hERG current change (%, negative = inhibition) at 1uM” value is 11.7%.
Regarding `Cc1cc([N+](=O)[O-])nn1CCCC(=O)Nc1c(C)n(C)n(-c2ccccc2)c1=O`, the “hERG current change (%, negative = inhibition) at 1uM” value was found to be 6.37%.
Consider `O=C(Nc1cccnc1)c1cc(-c2cccc(Cl)c2)on1`, for which the “hERG current change (%, negative = inhibition) at 1uM” value is on record as 7.97%.
As for `O=[N+]([O-])c1ccccc1S(=O)(=O)NCc1ccc(F)cc1`, the “hERG current change (%, negative = inhibition) at 1uM” value is reported as 9.12%.
Next, `O=C(O)c1cccc(-c2ccc(/C=N/Nc3nn[nH]n3)o2)c1`: 2.95%; `Cn1c(SCC(=O)N/N=C/c2ccco2)nc2ccccc21`: 5.3%.
As for `CCO[C@H]1OC(C(=O)NC2CC2)=C[C@@H](c2coc3ccccc3c2=O)[C@@H]1CCCO`, the “hERG current change (%, negative = inhibition) at 1uM” value is recorded as 13.4%.
With `CC(=O)Nc1ccc(Nc2c([N+](=O)[O-])cc(S(C)(=O)=O)cc2[N+](=O)[O-])cc1`, the “hERG current change (%, negative = inhibition) at 1uM” value turned out to be 12%.
On to `CC(C)N1CCN(Cc2cccc3nonc23)CC1CCO` (stereo not shown), for which the “hERG current change (%, negative = inhibition) at 1uM” value is 10%.
As for `CCOc1ccccc1NC(=O)NC1(C(=O)NCC2CCCO2)CCCCC1` (stereo not shown), the “hERG current change (%, negative = inhibition) at 1uM” value is on record as 12.9%.
`Cc1cccc(/C=N/NC(=O)CC(=O)NCCc2ccccc2)c1`: the “hERG current change (%, negative = inhibition) at 1uM” value worked out at 16.6%.
For the compound `CSc1nnc(CSCc2ccc(Cl)cc2Cl)n1-c1ccccc1`, the “hERG current change (%, negative = inhibition) at 1uM” value is reported as 13.6%.
For `CC(C)COc1ccc(C(=O)Nc2sc3c(c2C(=O)O)CC(C)(C)OC3)cc1`, the “hERG current change (%, negative = inhibition) at 1uM” value worked out at 18.7%.
As for `CS(=O)(=O)Nc1ccc(C(=O)Nc2ccc(S(=O)(=O)N3CCCC3)cc2)cc1`, the figure is 9.67%.
Consider `CCN(CC)c1ccc(N=CN2CCOCC2)cc1`, for which the “hERG current change (%, negative = inhibition) at 1uM” value is 15.6%.
With `CCOc1ccc(NS(=O)(=O)c2ccc(NS(=O)(=O)c3ccc(SC)cc3)cc2)cc1`, the “hERG current change (%, negative = inhibition) at 1uM” value is 9.23%.
Take `C=C(C)c1cccc(C(C)(C)NC(=O)NC2CN3CCC2CC3)c1` (stereo not shown): the “hERG current change (%, negative = inhibition) at 1uM” value was 3.81%.
As to `CCCC(=O)N1CC2(CCC)CN(C(=O)CCC)CC(CCC)(C1)C2=O`, the “hERG current change (%, negative = inhibition) at 1uM” value is 6.16%.
`CC(=O)Nc1ccc(S(=O)(=O)NNC(=S)NCC2CCCO2)cc1` (stereo not shown): the “hERG current change (%, negative = inhibition) at 1uM” value worked out at 15.1%.
With `Cc1cc(C(=O)O)n(C(C)(C)C)n1`, the “hERG current change (%, negative = inhibition) at 1uM” value turned out to be 7.4%.
As for `CCN(CCO)C(=O)CC(c1ccccc1)c1cc(Br)ccc1O` (stereo not shown), the “hERG current change (%, negative = inhibition) at 1uM” value was -4.66%.
For the compound `COc1ccc(S(=O)(=O)N2CCCc3ccccc32)cc1OC`, the “hERG current change (%, negative = inhibition) at 1uM” value amounted to 5.82%.
`Cc1ccc(CNC(=O)Cn2nnc(C(=O)Nc3cccc(C)c3C)c2N)cc1`: the “hERG current change (%, negative = inhibition) at 1uM” value turned out to be 15.6%.
As to `COc1cc2cc(CCCOC(=O)c3ccc(C(F)(F)F)cc3)oc(=O)c2cc1OC`, the “hERG current change (%, negative = inhibition) at 1uM” value came out at 10.5%.
As for `CC(C)CC1Nc2ncnc(N3CCN(c4ccccc4)CC3)c2N(Cc2ccc(Cl)cc2)C1=O.O=C(O)C(F)(F)F` (stereo not shown), the figure is 14.7%.
With `O=C(NCc1cccc(C(F)(F)F)c1)C1CC(c2ccccc2F)=NO1` (stereo not shown), the “hERG current change (%, negative = inhibition) at 1uM” value turned out to be 5.42%.
Next, `CN1CCN(C(=O)C2CCCN(S(=O)(=O)c3ccc(Cl)cc3)C2)CC1` (stereo not shown): 1.84%.
Consider `Cc1cccc(-c2oc(C)c(C)[n+]2[O-])c1.Cl`, for which the “hERG current change (%, negative = inhibition) at 1uM” value is listed as -1.74%.
Next, `Cc1ccccc1N=C(NO)c1cccnc1`: 13.5%; `O=C(CN1CCN(c2ccc(F)cc2)CC1)Nc1cccnc1Cl`: 2.93%.
As to `O=C(NNC(=O)c1ccc(SCC2CCCO2)c([N+](=O)[O-])c1)c1ccc(Cl)c([N+](=O)[O-])c1` (stereo not shown), the “hERG current change (%, negative = inhibition) at 1uM” value is given as -2.18%.
For `Cc1nc(S(=O)(=O)Cc2ccccc2Cl)nc2c1CCC2`, the “hERG current change (%, negative = inhibition) at 1uM” value is listed as 19.4%.
In the case of `COc1ccc(N=C2C(=Nc3ccc(OC)cc3)N(c3ccc(N(C)C)cc3)C(=S)N2c2ccc(OC)cc2)cc1`, the “hERG current change (%, negative = inhibition) at 1uM” value is reported as 1.24%.
As for `CCOC(=O)C1CCCN(C(=O)c2ccco2)C1` (stereo not shown), the “hERG current change (%, negative = inhibition) at 1uM” value stood at 5.15%.
Turning to `O=c1n(Cc2ccccc2Cl)nc2n1-c1ccccc1SC2`, the “hERG current change (%, negative = inhibition) at 1uM” value is 9.36%.
